In test [1] the test system is Cynomolgus monkey SEZ6L2. In words: ForteBio Octet binding kinetics, Protein A biosensors. As to the method: (§1) Affinity: The affinity of antibodies to various recombinant SEZ6L2 molecules was determined on an Octet Red (Pall, ForteBio) instrument. After loading reagents into a 96-well plate, the Octet Red with Protein A-conjugated biosensors was programmed as follows: 30 seconds for baseline #1; 120 seconds to immobilize the antibody; 30 seconds for baseline #2; 300 seconds for association of antibody to recombinant SEZ6L2; and 300-600 seconds for dissociation of recombinant SEZ6L2 from the antibody.
(§2) Table 10, below, indicates the KD, Kon, and Koff values for human antibodies 1A1, 3A1, 3A2, and 3A3 and humanized antibodies 16H8, 3E2, 20C4, and 2E4, for both human SEZ6L2 and cynomolgus monkey SEZL2, as determined by ForteBio Data Analysis 9.0 Kinetics software. Briefly, within the ForteBio Octet red96 instrument, Protein A biosensors were incubated with fixed amounts of the test antibody. The biosensors with bound antibody were then rinsed and dipped into wells containing varying concentrations of the recombinant target protein. Approximately 5 different concentrations were independently tested. After a period of time, the biosensors were dipped into buffer to allow the target protein to dissociate from the antibody. The ForteBio software package generated a best-fit curve for each of the profiles of the varying concentrations of target protein. The calculated affinity measurements were analyzed, and the rate constant values from the middle of the linear range were chosen.
In general terms: BLI is a label-free optical method that tracks binding on a fibre tip over time.

Test [2] addresses T1, Human SEZ6L2 (Homo sapiens, UniProt Q6UXD5).
T1 construct: a protein composed of the extracellular portion of the human SEZ6L2 protein; His6 (C); made in house; host or cells: CHO (ExpiCHO)
The description is as above. As to the method: as §1, §2

In test [3] the target is T2, SEZ6 (293-SEZ6) (Homo sapiens, UniProt Q53EL9).
T2 construct: expressed in transfected cells; host or cells: HEK 293
T2 sequence (Q53EL9 20-994): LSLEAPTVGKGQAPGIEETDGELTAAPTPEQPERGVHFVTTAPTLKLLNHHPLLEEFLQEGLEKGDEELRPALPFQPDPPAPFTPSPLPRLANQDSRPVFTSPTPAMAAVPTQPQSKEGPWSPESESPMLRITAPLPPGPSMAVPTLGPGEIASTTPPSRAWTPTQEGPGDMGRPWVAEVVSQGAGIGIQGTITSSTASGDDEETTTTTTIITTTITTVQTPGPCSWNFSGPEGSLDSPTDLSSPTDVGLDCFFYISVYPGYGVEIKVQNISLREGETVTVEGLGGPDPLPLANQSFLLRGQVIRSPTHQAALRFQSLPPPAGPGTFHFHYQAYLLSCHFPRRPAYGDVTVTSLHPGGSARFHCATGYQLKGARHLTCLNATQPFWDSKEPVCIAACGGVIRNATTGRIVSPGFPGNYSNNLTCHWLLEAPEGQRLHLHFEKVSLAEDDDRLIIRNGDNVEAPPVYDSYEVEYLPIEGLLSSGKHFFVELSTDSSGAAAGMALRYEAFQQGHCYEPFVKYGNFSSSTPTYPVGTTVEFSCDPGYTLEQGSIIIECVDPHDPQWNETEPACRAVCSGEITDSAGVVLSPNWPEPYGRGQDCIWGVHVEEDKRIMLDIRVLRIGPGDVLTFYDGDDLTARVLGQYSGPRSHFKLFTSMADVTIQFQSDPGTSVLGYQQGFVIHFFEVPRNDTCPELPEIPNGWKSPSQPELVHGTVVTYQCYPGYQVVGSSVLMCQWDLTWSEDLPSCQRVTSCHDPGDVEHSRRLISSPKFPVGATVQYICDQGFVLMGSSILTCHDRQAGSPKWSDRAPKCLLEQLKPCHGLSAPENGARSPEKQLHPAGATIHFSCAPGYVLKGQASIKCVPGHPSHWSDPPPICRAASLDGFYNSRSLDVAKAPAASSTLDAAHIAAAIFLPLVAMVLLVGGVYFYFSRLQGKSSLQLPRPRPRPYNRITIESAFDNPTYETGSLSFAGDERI
In words: Flow cytometry specificity on overexpressing 293 cells. Conditions: primary antibody 1 ug/ml, live cells on ice. The test is classed as binding. As to the method:
(§3) In order to assess whether SEZ6L2 antibody modulators immunospecifically associate with human SEZ6L2, and to determine whether the same modulators cross-react with SEZ6 and SEZ6L, flow cytometry was performed using a MACSquant™ as per the manufacturer's instructions. More particularly, modulators were tested for cross reactivity to cell lines that overexpress the human homologs of SEZ6 (293-SEZ6), SEZ6L (293-SEZ6L), and SEZ6L2 (293-SEZ6L2).
(§4) Briefly, staining for flow cytometry was performed in lx cold PBS with 0.5% BSA. Primary antibodies (1 ug/ml) were incubated with live cells on ice for one hour. After washing in the same buffer, cells were incubated with Alexa Fluro® 488-conjugated anti-human IgG secondary antibody @1:1000 (709-546-149, Jackson ImmunoResearch) on ice in the dark. After a 30 minute incubation, cells were washed in the same buffer and re-suspended in buffer plus propidium iodide (PI) to identify live cells. As a negative control, cells were incubated with secondary antibody alone. Acquisition of the data was performed on a MACSQuant® Flow Cytometer (Miltenyi Biotec) and analyzed with FlowJo software.

In test [4] the target is T3, SEZ6L (293-SEZ6L) (Homo sapiens, UniProt Q9BYH1).
T3 construct: expressed in transfected cells; host or cells: HEK 293
T3 sequence (Q9BYH1 29-1024): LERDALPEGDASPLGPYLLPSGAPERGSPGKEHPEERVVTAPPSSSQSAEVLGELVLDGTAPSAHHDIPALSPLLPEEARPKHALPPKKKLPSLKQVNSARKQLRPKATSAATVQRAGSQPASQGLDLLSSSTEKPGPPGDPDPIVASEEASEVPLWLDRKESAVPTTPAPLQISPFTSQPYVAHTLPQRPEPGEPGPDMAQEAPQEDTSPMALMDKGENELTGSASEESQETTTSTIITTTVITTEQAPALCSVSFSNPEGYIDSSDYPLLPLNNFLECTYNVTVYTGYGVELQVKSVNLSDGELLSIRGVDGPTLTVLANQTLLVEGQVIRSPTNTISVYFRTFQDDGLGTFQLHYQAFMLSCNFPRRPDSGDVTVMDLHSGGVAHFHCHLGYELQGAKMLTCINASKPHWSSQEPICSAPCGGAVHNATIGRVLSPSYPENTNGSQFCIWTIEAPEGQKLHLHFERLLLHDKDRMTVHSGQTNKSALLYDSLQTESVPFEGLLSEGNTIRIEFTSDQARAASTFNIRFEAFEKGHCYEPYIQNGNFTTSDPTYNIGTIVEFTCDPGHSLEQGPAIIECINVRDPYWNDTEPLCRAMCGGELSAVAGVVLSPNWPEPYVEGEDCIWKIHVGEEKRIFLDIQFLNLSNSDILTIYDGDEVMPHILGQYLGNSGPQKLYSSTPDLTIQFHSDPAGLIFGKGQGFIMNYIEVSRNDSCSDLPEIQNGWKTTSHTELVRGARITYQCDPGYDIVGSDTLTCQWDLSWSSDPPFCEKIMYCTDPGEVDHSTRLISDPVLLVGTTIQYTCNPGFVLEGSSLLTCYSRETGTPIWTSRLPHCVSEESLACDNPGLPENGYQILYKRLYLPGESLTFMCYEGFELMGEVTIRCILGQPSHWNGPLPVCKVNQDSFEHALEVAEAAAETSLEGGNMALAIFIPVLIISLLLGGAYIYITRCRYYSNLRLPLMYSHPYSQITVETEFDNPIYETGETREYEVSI
The test is described as above. The class given is binding. As to conditions: primary antibody 1 ug/ml, live cells on ice. The procedure:
as §3, §4

Test [5] deals with T4, SEZ6L2 (293-SEZ6L2) (Homo sapiens, UniProt Q6UXD5).
T4 construct: cDNA encoding the complete mature human SEZ6L2 protein containing a C-terminal FLAG tag was purchased from Origene; FLAG (C); host or cells: HEK 293
T4 sequence (Q6UXD5 28-910): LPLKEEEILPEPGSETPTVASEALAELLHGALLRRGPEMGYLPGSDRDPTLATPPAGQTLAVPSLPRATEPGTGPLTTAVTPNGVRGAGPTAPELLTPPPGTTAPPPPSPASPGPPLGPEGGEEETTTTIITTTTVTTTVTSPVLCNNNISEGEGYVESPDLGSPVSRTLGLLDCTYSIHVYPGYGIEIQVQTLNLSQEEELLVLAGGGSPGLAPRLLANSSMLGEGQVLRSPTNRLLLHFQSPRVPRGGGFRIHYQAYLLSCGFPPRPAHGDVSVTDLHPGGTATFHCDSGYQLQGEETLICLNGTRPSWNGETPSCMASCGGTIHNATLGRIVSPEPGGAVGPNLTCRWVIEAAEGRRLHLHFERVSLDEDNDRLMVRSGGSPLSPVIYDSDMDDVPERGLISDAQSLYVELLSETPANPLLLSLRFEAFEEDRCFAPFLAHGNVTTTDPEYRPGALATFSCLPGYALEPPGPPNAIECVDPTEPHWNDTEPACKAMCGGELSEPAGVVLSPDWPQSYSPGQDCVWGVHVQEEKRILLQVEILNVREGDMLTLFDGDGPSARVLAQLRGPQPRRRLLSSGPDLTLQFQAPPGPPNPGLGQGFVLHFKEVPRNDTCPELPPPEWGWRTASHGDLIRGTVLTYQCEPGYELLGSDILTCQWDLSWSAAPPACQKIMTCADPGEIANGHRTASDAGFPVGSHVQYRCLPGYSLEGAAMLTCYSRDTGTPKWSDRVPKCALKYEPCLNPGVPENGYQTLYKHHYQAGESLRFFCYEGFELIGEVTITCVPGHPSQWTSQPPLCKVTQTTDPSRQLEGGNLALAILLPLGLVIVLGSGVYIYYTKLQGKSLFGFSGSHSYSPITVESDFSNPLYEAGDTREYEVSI
Described as above. The test is classed as binding. Conditions: primary antibody 1 ug/ml, live cells on ice. As to the method:
as §3, §4

T1 sequence (Q6UXD5 28-844 limits assumed): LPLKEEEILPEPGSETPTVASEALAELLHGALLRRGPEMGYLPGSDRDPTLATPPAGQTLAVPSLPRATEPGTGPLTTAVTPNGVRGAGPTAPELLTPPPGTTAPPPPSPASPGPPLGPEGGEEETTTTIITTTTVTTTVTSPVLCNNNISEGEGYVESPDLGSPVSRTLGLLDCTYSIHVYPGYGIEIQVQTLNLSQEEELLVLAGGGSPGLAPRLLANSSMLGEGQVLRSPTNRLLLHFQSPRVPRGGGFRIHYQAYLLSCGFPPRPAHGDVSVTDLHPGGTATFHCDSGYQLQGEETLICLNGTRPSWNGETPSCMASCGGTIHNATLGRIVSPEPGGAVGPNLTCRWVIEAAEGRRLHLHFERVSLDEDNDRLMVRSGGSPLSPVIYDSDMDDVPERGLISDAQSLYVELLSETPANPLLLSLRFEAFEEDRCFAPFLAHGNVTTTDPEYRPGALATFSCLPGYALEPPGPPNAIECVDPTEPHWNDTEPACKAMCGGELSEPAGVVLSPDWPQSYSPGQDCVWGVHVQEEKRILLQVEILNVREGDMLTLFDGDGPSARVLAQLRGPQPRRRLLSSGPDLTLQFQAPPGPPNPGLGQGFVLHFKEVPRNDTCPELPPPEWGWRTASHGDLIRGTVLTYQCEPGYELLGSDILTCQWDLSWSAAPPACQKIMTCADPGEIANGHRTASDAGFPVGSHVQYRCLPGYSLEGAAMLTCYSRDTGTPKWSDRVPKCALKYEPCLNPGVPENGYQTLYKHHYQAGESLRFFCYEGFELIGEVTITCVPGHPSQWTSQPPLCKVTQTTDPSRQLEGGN

B1: 3A1: human anti-SEZ6L2 antibody, VH SEQ ID NO: 51, VL SEQ ID NO: 55 (antibody, V domains shown)
VH: QVQLVQSGAEVKKPGASVKVSCKASGFTFTGYYILWMRQAPGQGLEWMGWINPNNGGTHYAQKFQGRVTMTRDTSISTAYMELSRLRSDDTAVYYCARDSGHDWYFDLWGRGTLVTVSSA
VL: [sequence of about 100 residues not given]
As for B1, the “K(off)” value is recorded as 1.41E−04 in test [1] and 1.37E−04 in test [2]. The “K(on)” value in test [1] came out at 4.44E+05; in test [2], 5.38E+05. The “binding to 293-SEZ6 cells by flow cytometry” value (shortened to “binding to 293-SEZ6 cells”) in test [3] is reported as “no detectable binding”. The “binding to 293-SEZ6L cells by flow cytometry” value (shortened to “binding to 293-SEZ6L cells”) in test [4] is reported as “no detectable binding”. For the same molecule, the “binding to 293-SEZ6L2 cells by flow cytometry” value (“binding to 293-SEZ6L2 cells” below) in test [5] is recorded as “recognize a cell line that overexpresses SEZ6L2”.

B2: 3A3: human anti-SEZ6L2 antibody, VH SEQ ID NO: 79, VL SEQ ID NO: 82 (antibody, V domains shown)
VH: QVQLQESGPGLVKPSGTLSLTCAVSGGSISSSNWWSWVRQPPGKGLEWIGEIYHSGSTNYNPSLKSRVTISVDKSKNQFSLKLSSVTAADTAVYYCAAYSGSYFEYWGQGTLVTVSSA
VL: [sequence of about 100 residues not given]GGGTKLEIKR
As for B2, in test [1], the “K(off)” value worked out at 5.88E−02 and the “K(on)” value came to 2.24E+06. In test [2], the “K(off)” value stood at 6.02E−02 and the “K(on)” value came out at 2.52E+06. Further, in test [3], the “binding to 293-SEZ6 cells” value is listed as “no detectable binding”. Moreover, the “binding to 293-SEZ6L cells” value in test [4] is listed as “no detectable binding”. In test [5], the “binding to 293-SEZ6L2 cells” value was “recognize a cell line that overexpresses SEZ6L2”.

B3: 3A2: human anti-SEZ6L2 antibody, VH SEQ ID NO: 73, VL SEQ ID NO: 77 (antibody, V domains shown)
VH: QVQLQESGPGLVKPSGTLSLTCAVSGGSISSYHWWSWVRQPPGKGLEWIGEIYHSGSTNYNPSLKSRVTISVDKSKNQFSLKLSSVTAADTAVYYCARWGRIAVADYWGQGTLVTVSSA
VL: [sequence of about 100 residues not given]TFGQGTKVEIKR
B3: in test [1], the “K(off)” value stood at 2.52E−03 and the “K(on)” value stood at 8.28E+05. Besides, in test [2], the “K(off)” value is on record as 2.58E−03 and the “K(on)” value stood at 9.54E+05. For the same molecule, the “binding to 293-SEZ6 cells” value in test [3] is “no detectable binding”. Besides, the “binding to 293-SEZ6L cells” value in test [4] is recorded as “no detectable binding”. For the same molecule, the “binding to 293-SEZ6L2 cells” value in test [5] is “recognize a cell line that overexpresses SEZ6L2”.

The values above are taken from US11634486B2, “Anti-SEZ6L2 antibodies and antibody drug conjugates” (Bluefin BioMedicine, Inc., priority 2016, dated 2023).
